Experimental data as given in PubChem BioAssay AID488969 (Vanderbilt High Throughput Screening Facility, 2010).
The full ranking holds about 110,000 compounds; the median of “z-score” is about -0.1, and the highest 2% start at about 2. Some of the results follow. Active and inactive are the calls of the source.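 Rule for the calls: active = z-score in the third read window above 3 or below -3; inactive = the rest.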

target: Metabotropic glutamate receptor 8 (Rattus norvegicus) (UniProt P70579); test: rat mGluR8 modulators via GIRK flux, primary screen, cell-based, thallium flux, HTS (AID 488969); conditions: HEK293 rat mGluR8, GIRK (G protein-gated inwardly rectifying potassium channel) thallium flux, FluoZin2; at 10 µM; stronger effect = higher value; submaximal glutamate (EC20) added with thallium
UniProt P70579, sequence (P70579 whole entry, looked up): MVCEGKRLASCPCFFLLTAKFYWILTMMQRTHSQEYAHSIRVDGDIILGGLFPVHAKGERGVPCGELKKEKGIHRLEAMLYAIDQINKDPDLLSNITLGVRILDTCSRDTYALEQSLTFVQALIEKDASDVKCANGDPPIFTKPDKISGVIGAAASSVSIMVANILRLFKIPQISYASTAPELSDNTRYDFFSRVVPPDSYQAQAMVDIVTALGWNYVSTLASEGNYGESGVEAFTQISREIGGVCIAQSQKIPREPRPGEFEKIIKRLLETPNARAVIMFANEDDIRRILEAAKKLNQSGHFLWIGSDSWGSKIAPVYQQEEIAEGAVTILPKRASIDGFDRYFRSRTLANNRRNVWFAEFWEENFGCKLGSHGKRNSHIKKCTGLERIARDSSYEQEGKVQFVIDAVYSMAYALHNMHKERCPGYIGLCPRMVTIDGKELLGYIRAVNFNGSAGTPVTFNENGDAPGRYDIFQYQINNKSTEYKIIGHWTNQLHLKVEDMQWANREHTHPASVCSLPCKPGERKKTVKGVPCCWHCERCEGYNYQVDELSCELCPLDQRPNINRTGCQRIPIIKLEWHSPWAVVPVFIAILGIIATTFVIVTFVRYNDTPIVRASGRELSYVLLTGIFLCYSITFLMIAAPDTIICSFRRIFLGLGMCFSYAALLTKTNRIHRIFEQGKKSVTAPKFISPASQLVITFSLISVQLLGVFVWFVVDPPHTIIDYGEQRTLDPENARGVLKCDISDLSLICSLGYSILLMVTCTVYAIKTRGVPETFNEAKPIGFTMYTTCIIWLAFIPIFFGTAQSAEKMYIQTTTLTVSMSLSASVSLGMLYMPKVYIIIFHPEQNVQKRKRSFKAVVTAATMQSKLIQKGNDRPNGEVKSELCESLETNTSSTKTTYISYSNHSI

Row | Compound | z-score
1 | CC(C)OC(=O)CSc1nnc(Cc2ccccc2)n1CC1CCCO1 (configuration not stated) | 0.0484
2 | O=C(CP(=O)(c1ccccc1)c1ccccc1)Nn1cnnc1 | 0.808
3 | CCOc1ccc(/C=N/OCC(=O)NCc2cccs2)cc1 | -1.71
4 | CCOc1ccc(-n2c(SCC(=O)NC(C)CC)nc3n[nH]c(C)c3c2=N)cc1 (configuration not stated) | -0.45
5 | O=C(COc1ncnc2c(Cl)cc(Cl)cc12)N1CCCCC1 | -0.979
6 | O=C(Nc1sccc1C(=O)N1CCOCC1)c1cccnc1 | 0.24
7 | Cc1ccc2c(c1)NC(C(C)(C)C)CO2 (configuration not stated) | -0.154
8 | O=C(Nc1cc(Oc2ccccc2)cc([N+](=O)[O-])c1)C12CC3CC(C1)CC(n1cnc(Cl)n1)(C3)C2 | 0.357
9 | CCN(CC)C(=O)CSc1nnc(-c2ccccc2)n1-c1ccccc1 | -1.03
10 | CCOC(=O)N1CCN(C(=O)c2ccc3c(=O)n4c(nc3c2)CCCCC4)CC1 | -0.386
11 | CC(O)C(NS(=O)(=O)c1ccc(Cl)cc1)C(=O)OCc1nnc(-c2ccccc2)o1 (configuration not stated) | 0.126
12 | O=C(NCC1CCCO1)/C(=C\c1ccc(Cl)cc1)NC(=O)c1ccccc1 (configuration not stated) | -0.12
13 | CCCCCCc1cc2cc(-c3nnc(-c4cccc(OC)c4)o3)c(=O)oc2cc1O | -0.968
14 | COC(=O)[C@@H]1C2CCC(C(=O)Nc3ccccc3)(CC2)[C@@H]1C(=O)OC | -0.52
15 | Cc1cc(C(=O)CSc2nnnn2-c2ccccc2)c(C)n1-c1ccc2c(c1)OCO2 | 0.453
16 | CCOC(=O)c1cnc(-n2nc(C)cc2C)nc1Nc1cccc(C(=O)O)c1 | 0.146
17 | CC(=O)c1c(C)n(-c2ccccc2)c2ccc(O)cc12 | 0.0908
18 | O=[N+]([O-])c1ccc(Cl)c(/C=N/Nc2nc(N3CCOCC3)nc(N3CCOCC3)n2)c1 | -0.357
19 | CCOc1ccc(/C=N/NC(=O)Cc2csc(Nc3cccc(C(F)(F)F)c3)n2)cc1 | -0.15
20 | Cc1no[n+]([O-])c1COc1cccc(/C=C2\N=C(c3ccccc3)OC2=O)c1 | -0.238
21 | COc1ccc2nc(NC(=O)c3ccc(Br)s3)sc2c1 | -0.513
22 | CCOC(=O)CNC(=O)CSc1nnc(-c2ccccc2OC)n1CC | -0.377

Row | Compound | z-score
23 | c1cncc(-c2nc(NCC3COc4ccccc4O3)c3ccccc3n2)c1 (configuration not stated) | -0.22
24 | O=C(O)CSc1nnc(C2CC2)n1-c1ccccc1 | 0.28
25 | Cc1ccc(NC(=O)CC2SC(=O)N(c3ccccc3)C2=O)cc1 (configuration not stated) | -0.688
26 | O=C(NNc1ccc(C(F)(F)F)cc1[N+](=O)[O-])c1ccc(NS(=O)(=O)c2ccc(F)cc2)cc1 | -0.165
27 | CCc1ccc(C(=O)CN(C#N)c2nc(C)cc(C)n2)cc1 | -0.057
28 | Cc1ccc(/C=C2/NC(=O)N(Cc3ccccc3)C2=O)o1 | -0.0755
29 | Cc1cccc(N(CC(=O)NC2CCCCC2)C(=O)c2ccc(C)s2)c1 | -0.201
30 | Cc1cccc(OCc2nnc(SCC(=O)N3CCN(c4ccccc4)CC3)o2)c1C | 0.206
31 | O=C(NC(Cc1ccccc1)C(=O)O)/C(=C/c1ccc(F)cc1)NC(=O)c1ccccc1 (configuration not stated) | -0.292
32 | O=C(NCCO)c1cccc(Cl)c1 | 0.181
33 | Cc1ccccc1C(=O)N1CCN(c2ccc([N+](=O)[O-])c(NCc3ccco3)c2)CC1 | -1.31
34 | CCCS(=O)(=O)N1CCCC(C(=O)N2CCC(Cc3ccccc3)CC2)C1 (configuration not stated) | 0.446
35 | O=C(c1cc(-c2ccc3c(c2)OCO3)on1)N1CCN(c2ccccc2)CC1 | 0.0554
36 | CCc1ccc(OCC(=O)Nc2cc(S(=O)(=O)CC)ccc2O)cc1 | -0.0727
37 | Cc1ccc(-n2c(C)cc3c2CCCC3=O)cc1 | 0.096
38 | CS(=O)(=O)N1CCN(C(=O)c2ccccc2F)CC1 | -0.0414
39 | CN1CC2=Cc3ccccc3OC23Oc2ccccc2C=C3C1 | 2.01
40 | CCOCCCNC(=S)NCCNc1nc2c(C)cccc2cc1C#N | -0.7
41 | Cc1ccsc1/C=C1/SC(N2CCOCC2)=NC1=O | 0.0375
42 | COc1ccc(CC(NC(C)=O)C(=O)NC2CCN(C(=O)Nc3ccc(C#N)cc3)CC2)cc1OC (configuration not stated) | -0.0576
43 | CCCNC(=O)NCCc1ccncc1 | 0.239
44 | C=CCSc1nnc(C)n1-c1ccc(Cl)cc1 | -0.174

Row | Compound | z-score
45 | CCCCCCCC(=O)NC(Nc1ccc(S(N)(=O)=O)cc1)C(Cl)(Cl)Cl (configuration not stated) | -0.302
46 | O=C1NC(c2cccs2)Nc2sc3c(c21)CCCC3 (configuration not stated) | -0.137
47 | O=C(CSc1nc2c([nH]c3ccccc32)c(=O)n1-c1cccc(Cl)c1)N1CCOCC1 | -0.224
48 | CCOC(=O)N1CCN(Cc2nc(-c3ccc(C)cc3)no2)CC1 | 0.175
49 | Cc1ccc(O)c(C(=O)c2cnc3c(c2)c(C)nn3-c2ccccc2)c1 | 0.522
50 | Cc1cccc(NC(=O)c2sc3nc4c(c(-c5cccs5)c3c2N)CN(C)CC4)c1 | -0.0909
51 | Cc1cc(C)cc(N(CC(=O)N2CCN(Cc3ccccc3)CC2)S(=O)(=O)c2c(C)noc2C)c1 | 0.124
52 | CC1(C)CC(=O)C2=C(C1)N(c1cccc(O)c1)C1=C(C2)C(=O)CC(C)(C)C1 | -0.746
53 | Cn1c(-n2c(CCCN3C(=O)c4ccccc4C3=O)nc3ccccc3c2=O)nc2ccccc21 | -0.252
54 | Cc1cc(C(=O)OCC(=O)Nc2ncc(C(F)(F)F)cc2Cl)c(C)o1 | -0.119
55 | O=C(NC1CCCCC1)C(c1cccs1)N(C(=O)C(F)(F)F)c1ccccc1 (configuration not stated) | 0.111
56 | COc1ccc(C(=O)N[C@H](C(=O)OCC(=O)NC(=O)c2cccn2C)C(C)C)cc1 | -0.0993
57 | Cc1ccc(N2Cc3ccccc3OC(C)C2=O)cc1 (configuration not stated) | -0.257
58 | Cc1nn(Cc2c(F)c(F)c(F)c(F)c2F)c(C)c1NC(=O)c1ccc(COc2ccc(F)cc2)o1 | -1.15
59 | COc1ccccc1/C=C/C(=O)Nc1ccc2c(c1)OCCO2 | 0.0024
60 | Cc1nc(NC(=O)CSc2nnc3ccccn23)c(Cl)cc1Cl | 0.201
61 | CC(=O)N1Cc2ccccc2C(C)CC12CCCCC2 (configuration not stated) | -0.727
62 | O=c1[nH]c2ccccc2n1CCCSc1cnc2ccccc2n1 | -0.509
63 | Cc1ccc(C(=O)NCCCn2ccnc2)o1 | -0.246
64 | COc1cc(OC)cc(C(=O)NCCNC(=O)c2ccco2)c1 | -0.11
65 | CC1=C(C#N)C(NC(=O)C2CCCCC2)(C(F)(F)F)C(=O)N1 (configuration not stated) | 0.178
66 | Cc1ccc(/C=C/C(=O)N2CCCC(C)C2)cc1 (configuration not stated) | -0.296

Row | Compound | z-score
67 | COc1ccc(OC(=O)c2cnn(-c3ccccc3)c2C)cc1 | -0.182
68 | FC(F)(F)c1cnc(NNC(=S)Nc2ccc(Cl)cc2)c(Cl)c1 | active: 6.35
69 | Cc1cc(NC(=O)COC(=O)C2CCN(S(=O)(=O)c3c(Cl)cccc3Cl)CC2)no1 | -0.303
70 | Cc1ccc2cc(C(c3nnnn3CC3CCCO3)N3CCc4ccccc4C3)c(=O)[nH]c2c1 (configuration not stated) | 0.023
71 | O=S(=O)(Nc1ccc(N=Nc2ccccc2)cc1)c1ccccc1 | -0.241
72 | CCC(C)C(=O)Nc1ccc(OC)cc1[N+](=O)[O-] (configuration not stated) | -0.00262
73 | COc1cc(CC(=O)N/N=C/c2ccc([N+](=O)[O-])cc2)c([N+](=O)[O-])cc1OC | 0.0193
74 | CCC(C(=O)NCc1ccco1)n1nc(-c2ccc(OC)cc2)ccc1=O (configuration not stated) | 1.8
75 | O=C(CSc1nnc(SCc2cccc3ccccc23)s1)N/N=C/c1c[nH]c2ccccc12 | 0.828
76 | CCc1c(C)nc(SCC(=O)c2cccs2)c(C#N)c1C | 0.0943
77 | O=C(CCn1c(=S)[nH]c2ccccc2c1=O)NCCCN1CCOCC1 | 0.308
78 | COc1ccc(N(CN2C(=O)C3C4C=CC(C4)C3C2=O)C(=O)c2ccco2)cc1 (configuration not stated) | -1.01
79 | CCCC(=O)Nc1ccc(NC(=O)c2cccs2)cn1 | -0.4
80 | Cc1ccc(OCC(=O)NNC(=O)c2cc3ccccc3o2)cc1 | 0.736
81 | Cc1noc(C)c1COc1ccc(C(=O)NCC2CCCO2)cc1 (configuration not stated) | 0.0578
82 | COC(=O)CNC(=O)Cn1cnc2sc(C)c(S(=O)(=O)N3CCC(C)CC3)c2c1=O | -0.219
83 | N#CC(C(=O)NC1CCCCC1)c1nc2ccccc2nc1N1CCN(c2ccc(F)cc2)CC1 (configuration not stated) | 0.252
84 | S=C(Nc1ccc2snnc2c1)N1CCN(c2ccccn2)CC1 | -0.0796
85 | O=C(Nc1ccccc1)c1ccc(NCC2CCCO2)c([N+](=O)[O-])c1 (configuration not stated) | -0.175
86 | Cc1cc(N/N=C/c2ccc(Cl)cc2)nc(NCc2ccccc2)n1 | -0.165
87 | Cc1ccc(C)c(-n2c(Cc3cc(=O)[nH]c(=O)[nH]3)nnc2SC(C)C)c1 | 0.138
88 | O=C1CCCN1Cc1ncnn1-c1ccccc1 | -0.145

Row | Compound | z-score
89 | COc1cccc(N2CCCn3c2nc2c3c(=O)n(CCN3CCOCC3)c(=O)n2C)c1 | -0.284
90 | CCOC(=O)c1c(C)nc2sc3c(=O)n(-c4ccc(C(C)=O)cc4)cnc3c2c1-c1ccc(OC)cc1 | -0.361
91 | Cc1cc(C)n(-c2ccc(C(=O)Nc3ccc(N4CCOCC4)cc3)cc2)n1 | -0.13
92 | O=C(CCCn1c(=O)[nH]c2ccsc2c1=O)N1CCCCC1 | 0.2
93 | COc1cccc(CN2C(=O)c3ccccc3C2C(=O)NCC2CCCO2)c1 (configuration not stated) | -0.0589
94 | CCc1ccc(OCC(=O)N(C)CCC#N)c(Br)c1 | -0.043
95 | CCOC(=O)c1cc2ccccc2nc1C | 0.138
96 | Cc1csc(SCC(=O)Nc2nc(-c3ccccc3)cs2)n1 | 1.07
97 | CCCCC(=O)Nc1ccc(NC(=S)NC(=O)CC)cc1OC | -0.168
98 | COC(=O)Oc1ccc(/C=N/NC(=O)CSCc2ccccc2Br)cc1OC | -0.071
99 | CCCn1c(O)c(CN2CCCCC2)c(C)c(C#N)c1=O | -0.183
100 | CCc1ccc(Nc2ccc(S(=O)(=O)N3CCOCC3)cc2[N+](=O)[O-])cc1 | 0.0428
101 | CC(C)Oc1ccc(/C(O)=C2/C(=O)C(=O)N(CCN(C)C)C2c2ccco2)cc1 (configuration not stated) | 0.648
102 | CC(c1ccccc1F)n1cc(C(=O)NCCCn2ccnc2)nn1 (configuration not stated) | -0.244
103 | N#Cc1c(-c2ccccc2)nc(-c2ccccc2)[nH]c1=O | -0.54
104 | CCCOc1ccc2oc(=O)c3c(c2c1)CCCN3C(=O)CN1CCCC(C(=O)OCC)C1 (configuration not stated) | -0.518
105 | O=c1nc(-c2ccccc2)n(-c2ccccc2)c2ncccc12 | -0.171
106 | COc1ccc(OC)c(NC(=O)c2ccccc2SC)c1 | 0.39
107 | CC(C)Cc1nc2oc3c(N4CCN(C)CC4)ncnc3c2c2c1CCCC2 | -0.0108
